Experimental data: the supplement of paper PMC11417369
Some of the results follow.

System: PfAP2-HC AP2 domain (GST-tagged)
Test: gcPBM binding intensity (ln(normalized median fluorescence intensity)); higher = stronger DNA binding
Summary of the method: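 Plasmodium falciparum DNA-binding domains carrying a GST tag were expressed in E. coli and applied for 1 h, at about 25 μg on average, to an Agilent 4 × 180k array. The array held primer-extended double-stranded 36-bp intergenic genomic probes together with negative controls, and binding took place in 1× PBS with 1% milk, 0.2 mg/ml BSA, 0.5% salmon testes DNA and 0.03% Triton X-100. An Alexa488 anti-GST antibody detected bound protein, and the array was scanned at 488 nm. Binding intensity is taken as the highest Masliner-normalised natural-log median intensity across replicate spots of either probe orientation.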

Sequence	gcPBM binding intensity (ln)
TTATGCAATTTGTATTGTACATTCATGATATTAATA [XGTACX_site5070]	9.53
ATCTATATCTATAATACACACATAAATGGATATATA [CACACA_site6284]	9.69
AATGTGTACGCACGCACACACAAAAAAATATATATA [CACACA_site2913]	10.7
CAAGCCCTTCTGCTTACACACAGTAATTATTGTGCA [CACACA_site7399]	9.76
AATACCCATATCTTCACACATACATAATAAATTATA [CACACA_site5367]	9.75
TTTGAATATTCATATGCACACAAATTAATATACATA [CACACA_site8040]	9.63
TTTATTTATGTGTGGGTGCATATACGTATGATGTAT	9.92
TTTATTTTATTTTCATGTACAAAAGGGGAATAATAA [XGTACX_site2704]	9.37
GATTTATACAAATATGTACACACTAAATATATATTA [CACACA_site455]	9.83
TATTTATCTTTACGCACACACTTGCATGTACAAAAG [CACACA_site4753]	10
ATATGTATGTATTTATTATTGTGCATTGTATTTATA [CACACA_negctrl_site664]	9.84
ATATATTTATATATTTGTACATATAATATCTTCTTT [XGTACX_site8504]	9.69
GTCGTATAATTTTCAGTGCAATATTTGAATAAATGG [GTGCAC_site9404]	9.62
ATTTATTAATTACCATGTATAAAAAATTATATAATA [CACACA_negctrl_site581]	9.39
AGCAACTCAATATATATAAGAATTGTAATATAATAT [GTGCAC_negctrl_site429]	9.66
ATACAATACAAAAACACACACAAAAAAAGAAAAGGA [CACACA_site2156]	10.4
TTAAAATAAAGAAAATGTACATAAATTAAAATAAAG [XGTACX_site2281]	9.81
TTTTTTTTTTTTTTTATAGTACATTACCAAAAAAAA [CACACA_negctrl_site1197]	8.94
ATTTATTGACTATTTACACACATATTTATTATAATA [CACACA_site1624]	9.93
ACACATAATATGTGTAGTACTTTTTCTTTAACATTA [XGTACX_site1436]	9.74
AACAGTAACATTGAATGTACTTAATTTTAAGAAAAT [XGTACX_site2971]	9.67
TATAAATATAAATATACACACATATATTTATTTATA [CACACA_site6890]	9.66

Sequence	gcPBM binding intensity (ln)
TATTTTGTTCTTTCCACACACAAATACAGATATTGT [CACACA_site6097]	10.1
TCTTATCCATATATTACACACTATAAATAGAAATTA [CACACA_site6274]	9.45
ATTTGTATATATTAATGTACACACATGCGTATGTTC [XGTACX_site7579]	10
TGGGTAAACAGACACACACACATATAGATTTATATA [CACACA_site7026]	10.9
AAATTATATGAACATTGTACTTTATATATGTAAGAA [XGTACX_site1611]	9.64
CTTCCAATAAAAAATGCACACATTGAAAATATTGAA [CACACA_site2688]	9.66
ACACACATATATACATGTACATATATATATATATAT [XGTACX_site451]	10.1
TAATAAAATATGTACACACATACACCCATATATATA [CACACA_site1220]	10
TGTAGTCTGGAGAAAAGTACATAGTATCTGGTAACC [XGTACX_site2025]	9.6
AACAGACAGAAACACACACACATATATATATATATA [CACACA_site3394]	10.8
ATTTTCCAAAATAATTGTACAGGAAAGAAATAATTA [XGTACX_site7424]	9.41
ATACATATTTTACATTCACACAACAAATTTATATTT [CACACA_site4700]	9.87
AGGAACAAAATATACTGTACTTTATTATTTTCAAAA [XGTACX_site4421]	9.34
ATATATTTTAATTGATGTACTTTTTTATGTTAATGA [XGTACX_site4316]	9.5
TATACATATGAAAATACACACATACATACATATATA [CACACA_site8484]	10
ATTATACATATATAAGTGCAATAATGTTTTTTCCTT	9.58
AAGGTATATATAACTACACACTTATATATAATCTAA [CACACA_site92]	9.75
ATTTATTTATTTATATGTACATATTTAAAGAGTTCA [XGTACX_site7631]	9.57
ATATATATATATATATGTACTAAGAATTCTTTAAAA [XGTACX_site8476]	9.57
TTACTTTTAACAAATGTGCGCAGTTATCACACAGAC	9.67
TATATTTTGTTCTGTTGTACTAAAAAAATCTTTATA [XGTACX_site8372]	9.5
ACAAAACAAAAAAACTCACACATATACGGCATGTCA [CACACA_site5608]	10.3
